# According to publication PMC4336329 (PLoS ONE, 2015):
# About 14,000 (4.5%) of roughly 310,000 compounds showed an effect of 50% or more. Effects have a minus sign here. This is one part of the list.
# Molecular target: human ether-à-go-go-related gene (hERG) potassium channel (human, UniProt Q12809)
# Assay: primary screen, population patch clamp on CHO cells stably expressing hERG
# 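Note: peak tail current of the secondary pulse compared with the same well before compound.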
# Chain of human ether-à-go-go-related gene (hERG) potassium channel (Q12809 whole entry, looked up): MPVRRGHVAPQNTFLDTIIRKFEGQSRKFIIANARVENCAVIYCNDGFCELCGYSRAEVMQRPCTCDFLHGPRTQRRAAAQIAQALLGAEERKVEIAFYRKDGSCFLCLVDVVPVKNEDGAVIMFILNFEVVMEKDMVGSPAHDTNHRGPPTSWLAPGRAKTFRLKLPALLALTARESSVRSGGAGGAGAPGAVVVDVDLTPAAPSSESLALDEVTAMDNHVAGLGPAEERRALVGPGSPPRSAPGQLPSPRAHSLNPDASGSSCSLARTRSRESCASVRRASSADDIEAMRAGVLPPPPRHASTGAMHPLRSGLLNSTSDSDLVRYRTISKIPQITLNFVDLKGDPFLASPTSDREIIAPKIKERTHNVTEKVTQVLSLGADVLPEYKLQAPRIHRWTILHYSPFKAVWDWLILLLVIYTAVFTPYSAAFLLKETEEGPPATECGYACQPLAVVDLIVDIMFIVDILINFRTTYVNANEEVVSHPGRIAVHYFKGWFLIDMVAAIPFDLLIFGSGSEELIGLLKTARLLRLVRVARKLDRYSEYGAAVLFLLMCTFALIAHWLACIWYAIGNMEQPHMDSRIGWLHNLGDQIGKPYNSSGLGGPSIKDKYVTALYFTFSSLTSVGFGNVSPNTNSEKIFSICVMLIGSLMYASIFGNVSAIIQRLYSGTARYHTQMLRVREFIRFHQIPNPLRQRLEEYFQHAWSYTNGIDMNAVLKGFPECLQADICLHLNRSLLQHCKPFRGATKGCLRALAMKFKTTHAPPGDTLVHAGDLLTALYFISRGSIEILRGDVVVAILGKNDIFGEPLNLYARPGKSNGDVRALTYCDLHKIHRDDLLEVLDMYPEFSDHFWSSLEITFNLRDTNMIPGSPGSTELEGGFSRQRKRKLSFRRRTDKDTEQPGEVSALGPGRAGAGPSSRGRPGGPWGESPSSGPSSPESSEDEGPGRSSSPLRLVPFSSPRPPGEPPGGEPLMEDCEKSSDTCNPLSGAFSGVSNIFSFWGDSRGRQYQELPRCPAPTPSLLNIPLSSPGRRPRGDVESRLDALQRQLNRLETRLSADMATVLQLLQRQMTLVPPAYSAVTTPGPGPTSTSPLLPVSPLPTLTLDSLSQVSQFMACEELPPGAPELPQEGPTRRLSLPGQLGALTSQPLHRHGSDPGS
row,Compound,"hERG current change (%, negative = inhibition) at 10uM"
1,Cc1cccc(/C=N/NC(=O)NC23CC4CC(CC(C4)C2)C3)n1,2%
2,COc1ccc(CNC(=O)c2sccc2-c2ccccc2)cc1OC,7.89%
3,Cc1ccc(-n2cc(CNCCc3cscn3)c(-c3ccc(F)cc3)n2)cc1,-59%
4,Cc1ccc(CNC(=O)COC(=O)CSc2cc(C)c(Br)cc2C)cc1,3.11%
5,CC(=O)Nc1ccc(S(=O)(=O)NCCCc2ccccc2)cc1,5.64%
6,COC(=O)N/N=C/c1cc(Cl)cc(Cl)c1OCc1ccccc1,17.2%
7,Fc1ccccc1-n1cn[nH]c1=S,30.6%
8,CCCNc1nc2c(c(=O)n(C)c(=O)n2C)n1Cc1cccc(C)c1,-20.6%
9,COc1ccc(NC(=O)CN(C)CC(=O)NC2CCC(C)CC2)cc1 (centres unmarked),0.408%
10,O=C1N=c2ccccc2=C1c1[nH]c(=S)[nH]c1O,14.7%
11,CN(C)S(=O)(=O)c1cccc(C(=O)C2=C3SC=C(c4ccccc4)N3CC2)c1,-10.1%
12,CCOC(=O)c1c(C)nc2c(c1C)c(=O)oc1ccccc12,-1.92%
13,CN1c2ccccc2C2(C)CCCC3=Cc4cc([N+](=O)[O-])cc([N+](=O)[O-])c4OC312 (centres unmarked),1.85%
14,CC(C)N(Cc1c(O)ccc2c(=O)c(-c3ccc(Cl)cc3)coc12)C(C)C,-28.2%
15,CC(=O)Nc1ccc(NC(=O)c2cc(C)nn2-c2ccccc2)cc1,4.8%
16,COCCN(C(=O)/C=C/c1ccccc1)c1nnc(-c2cccnc2)s1,-9.61%
17,COc1ccc(C(=O)Nc2ccccc2NC(=O)c2ccco2)c(OC)c1,-21.9%
18,Cc1ccnc(NC(=O)c2ccc(COc3c(F)c(F)cc(F)c3F)o2)c1,13.3%
19,COc1cccc(C2/C(=C(/O)c3ccc4c(c3)OCO4)C(=O)C(=O)N2CCN2CCOCC2)c1 (centres unmarked),20.1%
20,COc1ccc(C(C(=O)NC2CCCC2)N(CCN2CCOCC2)C(=O)c2ccc(OC)c(OC)c2)cc1 (centres unmarked),-0.415%
21,CCOCCCNc1nc(C(F)(F)F)nc2c1nnn2Cc1ccccc1Cl,9.1%
22,COc1ccc(S(=O)(=O)NCC(=O)N(Cc2ccco2)C(C(=O)NC(C)(C)C)C(C)C)cc1 (centres unmarked),7.08%
23,O=C(CSc1nnnn1-c1cccnc1)Nc1cccc(Cl)c1,3.53%

row,Compound,"hERG current change (%, negative = inhibition) at 10uM"
1,CCN(Cc1cnn(C)c1)Cc1nc(Cc2ccccc2Cl)no1,-6.26%
2,CC(C)(C)c1ccc(S(=O)(=O)NCc2ccc(C(=O)NCC3CCCO3)cc2)cc1 (centres unmarked),13.8%
3,CCn1c(SCC(=O)Nc2ccccc2F)nnc1-c1ccoc1C,-30.1%
4,CCOc1ccc(CN(C)C(=O)CN2C(=O)NC(c3ccccc3)(c3ccccc3)C2=O)cc1,3.31%
5,O=C(c1csc2c1CCCC2)N1CCCCC1,18.5%
6,N#Cc1ccc(-c2ccccc2)nc1SCCN1CCOCC1,-23.7%
7,Cc1ccc(NC(=O)Cc2ccc(-n3cccc3)cc2)c(C)c1,0.774%
8,O=C(NCc1cccnc1)c1ccc2c(=O)n(CCCN3CCCC3=O)c(=S)[nH]c2c1,-1.47%
9,Cc1ccc(S(=O)(=O)N2C(=O)CCC2C(=O)Nc2ccc3c(c2)OCCO3)cc1 (centres unmarked),10.6%
10,COc1cccc(CNCCc2c[nH]c3ccccc23)c1,-14.2%
11,COc1ccc2nc(C)cc(NCc3ccc(F)cc3)c2c1,-61.6%
12,COc1cc(C#N)ccc1OCC(=O)NCc1cccs1,-1.28%
13,CC(C)(CCO)Nc1ncnc2onc(-c3ccc(F)cc3)c12,7.29%
14,CCOc1ccccc1OCCCC(=O)NC1CCCc2ccccc21 (centres unmarked),-1.35%
15,O=C(CN1C(=O)NC2(CCCCCC2)C1=O)c1cccs1,-5.01%
16,Cc1nn(C)cc1S(=O)(=O)N1CCN(Cc2ccccc2Cl)CC1,3.33%
17,O=C1c2ccccc2S(=O)(=O)c2cc(C(=O)N3CCN(c4c(Cl)cncc4Cl)CC3)ccc21,-38.8%
18,CC(C)(C)c1ccc(C(=O)Nc2ncn[nH]2)cc1,12.2%
19,O=C(O)c1ccc2c(c1)ncn2C1CCCCC1,5.84%
20,C/C(=N\NC1=NCCN1)c1ccc(N)c([N+](=O)[O-])c1,-15.2%
21,CCOC(=O)CNc1ncnc2nc[nH]c12,9.53%
22,O=C(NCCCNCc1ccccc1)c1ccccn1.O=C(O)/C=C/C(=O)O,-7.1%
23,COc1ccccc1CN1CC(C(=O)N(C)Cc2[nH]c3ccccc3c2C)CCC1=O (centres unmarked),-22.8%

row,Compound,"hERG current change (%, negative = inhibition) at 10uM"
1,CCC1=Nc2cc(C(=O)O)ccc2Sc2ccc(Cl)cc21,15%
2,CCN(CC)c1nc(-c2ccc(C(=O)NN)cc2)nc(-c2ccc(C(=O)NN)cc2)n1,17.3%
3,O=C(O)Cc1ccc(NS(=O)(=O)c2c(Cl)cccc2Cl)cc1,6.37%
4,Cc1cccc(N2C(S)=C(C#N)C(=O)NC2c2cccs2)c1 (centres unmarked),13%
5,CC(=O)NS(=O)(=O)c1ccc(NC(=O)C2c3ccccc3Oc3ccccc32)cc1,15.6%
6,CC(=O)c1ccc(NS(=O)(=O)c2ccc3c(c2)N(C(C)=O)CCO3)cc1,8.99%
7,CCOC(=O)C1(Cc2cccc(Cl)c2)CCCN(C(=O)c2cc(C)on2)C1 (centres unmarked),-9.8%
8,CN(C(=O)c1cccc(N2C(=O)C3C4C=CC(C4)C3C2=O)c1)C1CCCCC1 (centres unmarked),0.921%
9,O=C(CCNC(=O)c1ccc([N+](=O)[O-])cc1)Nc1nccs1,1.93%
10,CCCCOc1ccc(C(=O)NCC(=O)N(C)Cc2nc3ccccc3c(=O)[nH]2)cc1,-47.7%
11,O=P1(Oc2ccccc2)OCCCS1 (centres unmarked),18.6%
12,CCOC(=O)NC1(C(F)(F)F)C(=O)N(Cc2ccccc2)C2=C1C(=O)CC(C)(C)C2 (centres unmarked),20.9%
13,O=C(O)c1ccccc1C(=O)NCCCn1ccnc1,18.4%
14,O=S(=O)(Cc1ccccc1)Nc1ccc(F)cc1,7.05%
15,CCOc1ccc(NS(=O)(=O)c2cc(C(=O)N3CC(C)OC(C)C3)ccc2C)cc1 (centres unmarked),-0.0292%
16,COc1cccc(NC(=O)CN2C(=O)c3cccnc3Oc3ccc(Cl)cc32)c1,-7.75%
17,Nc1ccccc1C(=O)N/N=C1\C2CN3CCN(C2)CC1(c1ccccc1)C3,7.61%
18,CC1(C)CC(=O)c2c(oc3ccc(NS(=O)(=O)c4cccc5cccnc45)cc23)C1,-5.52%
19,COCCCNC(=S)N/N=C/c1ccc(OC)c(Br)c1,18.9%
20,Cc1ccc(S(=O)(=O)n2nc(OC(=O)c3c(-c4ccccc4Cl)noc3C)cc2N)cc1,16.3%
21,Cc1cccc(NC(=O)CSc2nccn2Cc2ccco2)c1C,-0.865%
22,O=C(NCc1ccc2c(c1)OCO2)C1CCN(S(=O)(=O)N2CCOCC2)CC1,-5.12%
23,COc1ccc(C)cc1NC(=O)C1C2C=CC(C2)C1C(=O)O (centres unmarked),5.81%

row,Compound,"hERG current change (%, negative = inhibition) at 10uM"
1,CC1Cc2ccccc2N1C(=O)c1cnc2ccccn2c1=O (centres unmarked),-31.1%
2,O=C(O)c1ccc(N=Nc2c(O)ccc3ncccc23)cc1,13.2%
3,CCCN(CC1CC1)c1nc(N)c2c(N)nc(OC)cc2c1C#N,-10.4%
4,COc1ccccc1NS(=O)(=O)c1cccc(NC(=O)c2nn(C)c(=O)c3ccccc23)c1,-7.97%
5,CN(C(=O)C1CCCO1)c1nnc(-c2ccncc2)s1 (centres unmarked),4.14%
6,CN1CCN(CC#CC(C)(O)C2CC3C=CC2C3)CC1.Cl (centres unmarked),1.53%
7,O=C1NC(c2ccccc2Cl)=N/C1=C/c1ccco1,-8.95%
8,Cc1ccccc1OCC(=O)Nc1ccccc1C(=O)N1CCCCC1,-19.3%
9,COc1cccc(C2C(C#N)=C(N)N(N(C)C)C3=C2C(=O)CCC3)c1 (centres unmarked),-4.26%
10,Cc1cc(C)c(S(=O)(=O)Nc2ccc(C(N)=O)cc2)c(C)c1,4.13%
11,CN(C)c1ccc(NC(=O)c2ccncc2)c2ccccc12,-3.02%
12,O=c1[nH]nc(CNc2ccc(Cl)cc2Cl)c2ccccc12,11.5%
13,NS(=O)(=O)c1ccc(NNC(=O)c2cccs2)cc1,16.3%
14,CCOc1ccc(N(CC(=O)Nc2cccc(F)c2)S(=O)(=O)c2c(C)noc2C)cc1,-5.67%
15,COCCN(C/C=C/c1ccccc1)C/C=C/c1ccccc1,-69.4%
16,Cc1ccc2sc(NC(=O)c3cccc(N4C(=O)CCC4=O)c3)nc2c1C,13.3%
17,COc1ccnc(CN(C)C(=O)C2CCC(=O)N(CCN(C)C)C2)c1 (centres unmarked),17.5%
18,Cc1nnc(SCC2CCCO2)n1-c1ccccc1 (centres unmarked),9.97%
19,CCc1ccccc1NC(=O)CN(C)C(=O)CSc1nn(-c2ccccc2)c(=S)s1,-9.72%
20,COc1cc(C(=O)N2CCN(C(=O)CC(C)C)CC2)cc(OC)c1OC,-0.249%
